In the supplement of paper PMC3334620:
The full ranking holds about 33,000 sequences; the median of “E-score (-0.5 to 0.5)” is about -0.036, and the highest 2% start at about 0.37. The list shows a part of the results.

These sequences were tested against T1, Yer064c (UniProt P40041) (assay: PBM E-score (8-mer binding enrichment) (E-score (-0.5 to 0.5)); higher = stronger / more preferred TF binding; most listed sequences are background and not binding sites). Conditions: protein concentration: 200 nM; construct: GST-full length.
T1 sequence: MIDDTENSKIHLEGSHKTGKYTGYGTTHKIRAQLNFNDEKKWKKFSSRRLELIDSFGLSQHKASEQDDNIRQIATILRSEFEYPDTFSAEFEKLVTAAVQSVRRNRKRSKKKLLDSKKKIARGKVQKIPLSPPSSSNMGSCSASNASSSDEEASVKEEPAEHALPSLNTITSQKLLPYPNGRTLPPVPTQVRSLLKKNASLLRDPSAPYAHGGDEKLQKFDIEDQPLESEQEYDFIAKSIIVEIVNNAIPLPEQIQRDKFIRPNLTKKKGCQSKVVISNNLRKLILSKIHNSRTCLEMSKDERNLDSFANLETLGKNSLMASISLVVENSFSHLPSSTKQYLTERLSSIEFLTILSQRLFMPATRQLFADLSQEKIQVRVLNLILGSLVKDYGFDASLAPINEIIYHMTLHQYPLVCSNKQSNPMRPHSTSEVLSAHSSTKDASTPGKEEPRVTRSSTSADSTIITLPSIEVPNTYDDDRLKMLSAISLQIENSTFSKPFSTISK
In short: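 Masliner-normalised scans of fluorescent anti-GST signal were the basis for scoring. That signal came from GST-tagged yeast transcription factors applied at about 100-200 nM to double-stranded universal all-10-mer Agilent arrays on fresh or once-stripped slides. Each ungapped eight-base word, pooled with its reverse complement, received an E-score from the Universal PBM Analysis Suite.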

| Sequence | PBM E-score |
| --- | --- |
| ATTCTTCA | 0.118 |
| GACTGATA | 0.239 |
| CGGTACAC | -0.172 |
| ACTAACGC | 0.125 |
| AACAAGAC | 0.14 |
| AGCTCCGC | -0.216 |
| ACTGAACC | 0.0953 |
| CTGATGTC | -0.0215 |
| GGGCATCA | -0.0947 |
| AACGGCGA | -0.0243 |
| ATCTTAAC | 0.156 |
| CGCGCGGC | -0.139 |
| CAAAAAGC | 0.0801 |
| ATTGTCCA | -0.00809 |
| AGGTTTAG | 0.0773 |
| AACAATTC | 0.00365 |
| CAGGTCTC | -0.119 |
| TATCCCGA | -0.0789 |
| AATTAGTG | 0.0657 |
| CCTGGCAC | -0.304 |
| CTATTAAA | 0.124 |
| TCGTTCAA | 0.139 |

| Sequence | PBM E-score |
| --- | --- |
| GAATCCCA | 0.0684 |
| CAGGGCCG | -0.183 |
| AGTATAAC | 0.0515 |
| CGGAGTCA | 0.477 |
| CCCGGCTA | -0.235 |
| GGTTAACA | 0.139 |
| ATTGCTGC | -0.184 |
| CAACCCTC | -0.118 |
| ACCTTAGA | -0.0208 |
| AGAAGCTG | -0.115 |
| AGGATGCC | -0.137 |
| ACAGATTA | -0.0211 |
| AGTAGAAC | -0.0751 |
| GGATCTTA | -0.0941 |
| ATCATAAC | 0.26 |
| CCAGTAGA | 0.0795 |
| CTAGAAGC | -0.156 |
| AGCATTCG | -0.349 |
| AATGTGCG | -0.204 |
| ACAAAGGC | -0.232 |
| AGAACATC | -0.174 |
| GGCACTGA | -0.0198 |

| Sequence | PBM E-score |
| --- | --- |
| AGCTTCTG | -0.163 |
| CTAACTTC | 0.0876 |
| AACGTGCC | -0.239 |
| GCTTCAAA | -0.158 |
| GGACCTCA | -0.0461 |
| ATGAGGGC | -0.332 |
| AGCTTAAA | 0.2 |
| CGGTAAGC | -0.107 |
| AACCTATG | 0.0309 |
| GTCGCGAC | 0.222 |
| CCGCAAGC | -0.268 |
| CACGTGCA | -0.227 |
| CTTAGCAA | -0.112 |
| GAAATTCA | -0.113 |
| ACTGATTC | 0.319 |
| GACATAAC | 0.0129 |
| AGATTTTG | 0.0421 |
| CACAGAGC | -0.0104 |
| AGTGTAGG | 0.0359 |
| GGGCTACA | -0.0915 |
| TGCGGACA | -0.121 |
| ACTCAAGT | 0.366 |

| Sequence | PBM E-score |
| --- | --- |
| GCGCTTAC | -0.156 |
| AACAACAT | -0.0999 |
| CACCCGCA | -0.105 |
| CCTTAATC | 0.295 |
| CGCTGCTC | -0.243 |
| AAATTCGC | -0.0229 |
| ATCGCGTG | 0.0166 |
| CAATACAG | -0.0502 |
| CCGACAGG | -0.158 |
| CTACAATC | 0.172 |
| CGGATATA | 0.0645 |
| CTTTGGAA | 0.019 |
| CAACGCCC | -0.322 |
| CGGCTTGA | 0.115 |
| TAAACAAA | -0.0548 |
| CCAGCACC | -0.231 |
| CCTTACCA | -0.0939 |
| ACCACCCC | -0.139 |
| AATGTTAT | -0.011 |
| ACTTAAAG | 0.00013 |
